Results from PubChem BioAssay AID686978 (National Center for Advancing Translational Sciences (NCATS), 2013).
Several values for one entry are separate records, joined by “and”; a condition that tells them apart may be missing. Equal entries are not always repeated. The campaign covered roughly 420,000 compounds. About 64,000 (15%) were called active. Inconclusive means that the source gave no clear call. Such entries were picked first, then a sample of the others. Calls follow the shape of the dose curve; as a rule, active = well fitted inhibition curve with a large enough effect; inconclusive = small, poorly fitted or top-dose-only effect; inactive = flat fitted curve, though single readings scatter. Potencies of inconclusive entries are doubtful fits and often do not repeat.

Assay: qHTS for Inhibitors of human tyrosyl-DNA phosphodiesterase 1 (TDP1): qHTS in cells in absence of CPT; also: nearly all actives have a fitted effect of over 55% in size
Conditions: DT40 Tdp1-/- hTDP1 cells, no CPT, ATP luminescence, 48 h; activity change, negative = growth inhibition: at 46.2 µM (top of the series) unless noted
How it was run: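 Growth kinetics read by CellTiter-Glo luminescence after ≥48 hr at 37 °C. Cells: DT40 Tdp1-/- stably carrying human TDP1, 400 per well, compound exposure in the absence of CPT (DMSO vehicle).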
% is scaled to controls: 0 for no effect and ±100 for the full control effect; potency is read from the fitted curve at half-maximal effect; tags tell the direction and shape of the fitted curve.

| SMILES | Potency | activity change, negative = growth inhibition |
| --- | --- | --- |
| O=C1c2cccc3c(O)ccc(c23)C(=O)N1Cc1ccccc1 | inconclusive: 5.8 µM [inhibitor, partial curve] | – |
| Cc1cccn2c(=O)c3cc(C(=O)NCCc4ccccc4)c(=N)n(CCCn4ccnc4)c3nc12 | inconclusive: 18.4 µM [inhibitor, single point] | – |
| COc1ccccc1/C=C/c1nc2ccccc2s1 | inconclusive: 17.8 µM [inhibitor, single point] | – |
| CC(C)NC(=O)c1cc(C2CCCCN2S(=O)(=O)c2cccs2)on1 (stereo not given) | inactive | – |
| Cc1ccc(N=Cc2cc(Cc3ccccc3Cl)cc([N+](=O)[O-])c2O)c(O)c1 | inactive | – |
| O=C(CCN1C(=O)/C(=C/c2ccc(Cl)cc2)SC1=S)Nc1cccnc1 | inconclusive: 29.1 µM [inhibitor, single point] | – |
| CCN(CC)S(=O)(=O)c1ccc2c(c1)N(CC(=O)N(C)Cc1ccccc1)C(=O)CO2 | active: 25.9 µM | – |
| Cc1ccc(Cn2cc(CCC(=O)NCc3ccccc3F)c3ccccc32)cc1 | inactive | – |
| O=C(CC(=O)c1ccccc1O)c1cccc(F)c1 | active: 4.11 µM | – |
| CCN(Cc1ccccc1)C(=O)/C=C/c1ccccc1[N+](=O)[O-] | inconclusive: 23.1 µM [inhibitor, single point] | – |
| Nc1nc(NC2CCCC2)cc(=O)[nH]1 | inactive | – |
| O=C1CC(c2ccccc2)CC2=C1C(c1ccco1)n1nc(C(F)(F)F)nc1N2 (stereo not given) | active: 14.1 µM | – |
| COC(=O)c1ccc(NC(=O)Cn2nc(C(=O)Nc3ccc(C)cc3)ccc2=O)cc1 | inactive | – |
| COc1ccccc1N1CCN(c2ncnc3c2nc2n3CCCC2)CC1 | active: 18.4 µM | – |
| CS(=O)(=O)c1ccc(N2CCOCC2)c(S(C)(=O)=O)c1 | inactive | – |
| Cn1cccc1/C=C1\SC(=Nc2ccccc2)NC1=O | active: 2.31 µM | – |
| Cc1ccc(N(C(=O)CNC(=O)c2ccco2)C(C(=O)NC2CCCCC2)c2cccnc2)cc1 (stereo not given) | inactive | – |
| CC(C)CCNc1ncnc2c1cnn2-c1cccc(Cl)c1 | inconclusive: 23.1 µM [inhibitor, single point] | – |
| NS(=O)(=O)c1ccc(NC(=S)N2CCN(c3ccccc3)CC2)cc1 | inconclusive: 20.6 µM [inhibitor, single point] | – |
| COc1cc(S(=O)(=O)N2CCn3cccc3C2C)ccc1NC(C)=O (stereo not given) | inactive | – |
| C=CCc1c(C)nc(SC)nc1Nc1ccccc1 | inactive | – |
| CCCCCCN1C=CC(=C/C=C(\C#N)C(=O)OCC)C=C1 | active: 16.4 µM | – |
| COc1ccc(CCN(C)C(=O)C23CC4CC(CC(Cl)(C4)C2)C3)cc1OC | inconclusive: 18.4 µM [inhibitor, partial curve] | – |
| CC(=O)Nc1ccc(S(=O)(=O)NCCC(=O)OCC(=O)c2cc(C)ccc2C)cc1 | inactive | – |
| COc1ccc(Br)c(C(=O)OCC(=O)NC2CCCCCC2)c1 | inactive | – |

| SMILES | Potency | activity change, negative = growth inhibition |
| --- | --- | --- |
| O=C(c1cccc(S(=O)(=O)N2CCOCC2)c1)N1CCN(C/C=C/c2ccccc2)CC1 | inconclusive: 29.1 µM [inhibitor, single point] | – |
| O=C(Cc1ccc(Cl)cc1)Nc1ccc2nn(-c3ccccc3)nc2c1 | inconclusive: 16.4 µM [inhibitor, single point] | – |
| COc1cc(-c2nnc(SCC(=O)N3c4ccccc4Sc4ccccc43)o2)cc(OC)c1OC | active: 8.2 µM | – |
| O=C(c1cc2cc(Br)ccc2o1)N1CCCCC1 | active: 20.6 µM | – |
| O=C(NC1CCCC1)c1cccc2c1C(=O)c1ccc(Cl)cc1S2(=O)=O | inactive | – |
| CN(C)CCC(=O)C(Cc1ccccc1)c1ccccc1 (stereo not given) | active: 4.61 µM | – |
| Cc1ccc(S(=O)(=O)N(Cc2ccccc2)c2ccccc2C(=O)Nc2ccccc2C(=O)NCc2ccco2)cc1 | inconclusive: 23.1 µM [inhibitor, partial curve] | – |
| O=c1c(-c2ccc(F)cc2)nc2cnc(Oc3ccccc3)nc2n1C[C@H]1CCCO1 | inconclusive: 16.4 µM [inhibitor, partial curve] | – |
| COc1cc(F)ccc1-c1csc(C(O)c2ccccc2)n1 (stereo not given) | inconclusive: 18.4 µM [inhibitor, single point] | – |
| CC(C)(C)C(=O)Nc1cc2c3c(c1)CCN3C(=O)CC2 | inactive | – |
| CCC1CN(C(=O)N2CCC(C(=O)NCc3ccco3)CC2)c2ccccc2O1 (stereo not given) | inactive and inconclusive: 13 µM [inhibitor, partial curve] | – |
| Cc1ccc(N2C(=O)CCC2(C(N)=O)c2ccccc2)cc1 (stereo not given) | inactive | – |
| FC(F)C(F)(F)c1cc(-c2ccc(Cl)cc2)n[nH]1 | active: 18.4 µM | – |
| CCn1c(C)c(Br)c(=O)c(C(=O)OC)c1-c1ccc(Cl)cc1 | inactive | – |
| CC(C)N(C(=O)CSc1nc(COc2ccccc2)nc2ccccc12)C(C)C | inconclusive: 23.1 µM [inhibitor, single point] | – |
| CCOc1ccccc1NC(=O)CN1C(=O)C2(SCC(=O)N2c2ccc(C)cc2)c2ccccc21 (stereo not given) | inconclusive: 20.6 µM [inhibitor, single point] | – |
| CC(=O)c1ccc(OC2(C)CCN(Cc3ccc(C)cc3)C2)cc1 (stereo not given) | inconclusive: 14.6 µM [inhibitor, single point] | – |
| COc1ccc2c(C#N)c3ccccn3c2c1 | active: 23.1 µM | – |
| CCc1nnc(NC(=O)CCC(=O)N2CCN(CCc3ccccc3)CC2)s1 | inactive | – |
| CCCNC(=O)c1c(N)n(-c2ccc(S(N)(=O)=O)cc2)c2nc3ccccc3nc12 | inactive | – |
| CC(C)c1ccc(NC(=O)Cn2c(=O)n(Cc3nc(-c4ccccc4)no3)c(=O)c3cc4c(cc32)OCO4)cc1 | inconclusive: 13 µM [inhibitor, partial curve] | – |
| CNc1nnc(SCC(=O)c2c(N)n(C3CC3)c(=O)[nH]c2=O)s1 | – | inconclusive: -38.9% [inhibitor] |
| O=C1NC[C@@H](CCCCN2C[C@H](Cc3ccc(O)cc3)N(CCc3ccc(O)cc3)C(=O)C2=O)N(CCc2ccc(O)cc2)C1=O | inactive | – |
| CC(=O)c1cccc(NC(=O)N2CCC(CN3CCCCC3)CC2)c1 | inactive | – |
| CC(=O)Nc1ccc(-c2ccnc3c2CC(C(=O)Nc2cccc(C(C)=O)c2)O3)cc1 (stereo not given) | active: 14.6 µM | – |
